Measured values: the supplement of paper PMC4604168 (melanoma cell lines)
The other results are listed elsewhere or left out. Single values are uncertain, as repeats are few or missing.

How the values were obtained:
Assay in all cases: cell count relative to DMSO control; melanoma cells; higher = more viable cells
Conditions in all cases: library dose: standard library concentration; 72 h
A101D = tested on: A101D
A2058 = tested on: A2058
A375 = tested on: A375
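Also: cells treated in 1,536-well plates, then fixed and DAPI-stained, with nuclei counted from automated high-throughput microscope images.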

Question: For `COc1ccc(C2=N[C@@H](c3ccc(Cl)cc3)[C@@H](c3ccc(Cl)cc3)N2C(=O)N2CCNC(=O)C2)c(OC(C)C)c1` [Nutlin-3] + Nc1cccc2c1CN(C1CCC(=O)NC1=O)C2=O [lenalidomide] (first compound 0.5 µM, partner dose 5 µM), which cell count (A101D) is on record?
Answer: 67.3%

Question: And the cell count (A2058)?
Answer: 122%

Question: What about the cell count (A375) of the same compound?
Answer: 93.1%

Question: `Cc1cn(-c2cc(NC(=O)c3ccc(C)c(Nc4nccc(-c5cccnc5)n4)c3)cc(C(F)(F)F)c2)cn1` [nilotinib] + O=C(Nc1cccc(Cl)c1)Nc1ncc(CCNc2ncnc3ccsc23)s1 [SNS314] (first compound 1 µM, partner dose 0.004 µM) was tested. Which cell count (A101D) did it give?
Answer: 71.1%

Question: What about the cell count (A2058) of the same compound?
Answer: 73.8%

Question: What about the cell count (A375) of the same compound?
Answer: 118%

Question: With `COc1ccc(C2=N[C@@H](c3ccc(Cl)cc3)[C@@H](c3ccc(Cl)cc3)N2C(=O)N2CCNC(=O)C2)c(OC(C)C)c1` [Nutlin-3] + O=C(O)c1ccc2c(c1)nc(Nc1cccc(Cl)c1)c1ccncc12 [CX4945] (first compound 0.5 µM, partner dose 2 µM) as the compound, how does the cell count (A101D) read?
Answer: 64.3%

Question: What about the cell count (A2058) of the same compound?
Answer: 85.4%

Question: What about the cell count (A375) of the same compound?
Answer: 62.9%

Question: With `Cc1cc(Nc2cc(N3CCN(C)CC3)nc(/C=C/c3ccccc3)n2)n[nH]1` + COCC[n+]1c2c(n(Cc3cnccn3)c1C)C(=O)c1ccccc1C2=O [YM155] (first compound 0.2 µM, partner dose 0.002 µM) as the compound, how does the cell count (A101D) read?
Answer: 69.2%

Question: And the cell count (A2058)?
Answer: 19.8%

Question: And the cell count (A375)?
Answer: 79.9%

Question: With `CC(C)C[C@H](NC(=O)[C@H](Cc1ccccc1)NC(=O)c1cnccn1)B(O)O` [Bortezomib] + OCCn1cc(-c2cnc3nnn(Cc4ccc5ncccc5c4)c3n2)cn1 [PF04217903] (first compound 0.005 µM, partner dose 5 µM) as the compound, how does the cell count (A101D) read?
Answer: 8.07%

Question: What about the cell count (A2058) of the same compound?
Answer: 10.6%

Question: And the cell count (A375)?
Answer: 76.6%

Question: For `COc1ccc(C2=N[C@@H](c3ccc(Cl)cc3)[C@@H](c3ccc(Cl)cc3)N2C(=O)N2CCNC(=O)C2)c(OC(C)C)c1` [Nutlin-3] + O=C(Nc1cccc(Cl)c1)Nc1ncc(CCNc2ncnc3ccsc23)s1 [SNS314] (first compound 0.5 µM, partner dose 0.004 µM), which cell count (A101D) is on record?
Answer: 78.9%

Question: And the cell count (A2058)?
Answer: 95.8%

Question: What about the cell count (A375) of the same compound?
Answer: 81.2%

Question: What does the source list for `Cn1c(=O)n(-c2ccc(C(C)(C)C#N)cc2)c2c3cc(-c4cnc5ccccc5c4)ccc3ncc21` + Cn1c(Nc2ccc(C(F)(F)F)cc2)nc2cc(Oc3ccnc(-c4ncc(C(F)(F)F)[nH]4)c3)ccc21 [CHIR265] (first compound 0.02 µM, partner dose 0.4 µM)?
Answer: cell count (A101D): 46.4%; cell count (A2058): 33.3%; cell count (A375): 81.5%

Question: For `Cn1c(=O)n(-c2ccc(C(C)(C)C#N)cc2)c2c3cc(-c4cnc5ccccc5c4)ccc3ncc21` + Nc1ncn([C@H]2C[C@H](O)[C@@H](CO)O2)c(=O)n1 [decitabine] (first compound 0.02 µM, partner dose 0.5 µM), which cell count (A101D) is on record?
Answer: 68.4%

Question: What about the cell count (A2058) of the same compound?
Answer: 45.7%

Question: What about the cell count (A375) of the same compound?
Answer: 87.4%

Question: What does the source list for `Cn1c(=O)n(-c2ccc(C(C)(C)C#N)cc2)c2c3cc(-c4cnc5ccccc5c4)ccc3ncc21` + CS(=O)(=O)CCNCc1ccc(-c2ccc3ncnc(Nc4ccc(OCc5cccc(F)c5)c(Cl)c4)c3c2)o1 [lapatinib] (first compound 0.02 µM, partner dose 4 µM)?
Answer: cell count (A101D): 57.9%; cell count (A2058): 49.2%; cell count (A375): 156%

Question: Which results are given for `Cc1cn(-c2cc(NC(=O)c3ccc(C)c(Nc4nccc(-c5cccnc5)n4)c3)cc(C(F)(F)F)c2)cn1` [nilotinib] + C[C@@H](Oc1cc(-c2cnn(C3CCNCC3)c2)cnc1N)c1c(Cl)ccc(F)c1Cl [Crizotinib] (first compound 1 µM, partner dose 1 µM)?
Answer: cell count (A101D): 81.3%; cell count (A2058): 82.1%; cell count (A375): 120%

Question: Which cell count (A101D) does the source give for `Cn1c(=O)n(-c2ccc(C(C)(C)C#N)cc2)c2c3cc(-c4cnc5ccccc5c4)ccc3ncc21` + Nc1cccc2c1CN(C1CCC(=O)NC1=O)C2=O [lenalidomide] (first compound 0.02 µM, partner dose 5 µM) here?
Answer: 75.7%

Question: What about the cell count (A2058) of the same compound?
Answer: 67.5%

Question: What about the cell count (A375) of the same compound?
Answer: 82.9%

Question: Which results are given for `CC(C)C[C@H](NC(=O)[C@H](Cc1ccccc1)NC(=O)c1cnccn1)B(O)O` [Bortezomib] + O=C(O)c1ccc2c(c1)nc(Nc1cccc(Cl)c1)c1ccncc12 [CX4945] (first compound 0.005 µM, partner dose 2 µM)?
Answer: cell count (A101D): 19.8%; cell count (A2058): 10%; cell count (A375): 74.7%

Question: With `Cn1c(=O)n(-c2ccc(C(C)(C)C#N)cc2)c2c3cc(-c4cnc5ccccc5c4)ccc3ncc21` + C[C@@H](Oc1cc(-c2cnn(C3CCNCC3)c2)cnc1N)c1c(Cl)ccc(F)c1Cl [Crizotinib] (first compound 0.02 µM, partner dose 1 µM) as the compound, how does the cell count (A101D) read?
Answer: 75.1%

Question: And the cell count (A2058)?
Answer: 45.9%

Question: And the cell count (A375)?
Answer: 94.5%

Question: With `CC(C)C[C@H](NC(=O)[C@H](Cc1ccccc1)NC(=O)c1cnccn1)B(O)O` [Bortezomib] + Nc1ccn([C@@H]2O[C@H](CO)[C@@H](O)C2(F)F)c(=O)n1 [gemcitabine] (first compound 0.005 µM, partner dose 0.002 µM) as the compound, how does the cell count (A101D) read?
Answer: 14.7%

Question: And the cell count (A2058)?
Answer: 13.6%

Question: And the cell count (A375)?
Answer: 85.1%

Question: Which results are given for `Cc1cn(-c2cc(NC(=O)c3ccc(C)c(Nc4nccc(-c5cccnc5)n4)c3)cc(C(F)(F)F)c2)cn1` [nilotinib] + Cn1cnc2c(F)c(Nc3ccc(Br)cc3Cl)c(C(=O)NOCCO)cc21 [selumetinib] (first compound 1 µM, partner dose 0.075 µM)?
Answer: cell count (A101D): 60.6%; cell count (A2058): 112%; cell count (A375): 99.5%

Question: For `CC(C)C[C@H](NC(=O)[C@H](Cc1ccccc1)NC(=O)c1cnccn1)B(O)O` [Bortezomib] + CCN(CC)CCCCNc1ncc2cc(-c3cc(OC)cc(OC)c3)c(NC(=O)NC(C)(C)C)nc2n1 [PD173074] (first compound 0.005 µM, partner dose 0.5 µM), which cell count (A101D) is on record?
Answer: 11.1%

Question: And the cell count (A2058)?
Answer: 23.9%

Question: What about the cell count (A375) of the same compound?
Answer: 89.8%

Question: What does the source list for `COc1ccc(C2=N[C@@H](c3ccc(Cl)cc3)[C@@H](c3ccc(Cl)cc3)N2C(=O)N2CCNC(=O)C2)c(OC(C)C)c1` [Nutlin-3] + C#Cc1cccc(Nc2ncnc3cc(OCCOC)c(OCCOC)cc23)c1 [erlotinib] (first compound 0.5 µM, partner dose 4 µM)?
Answer: cell count (A101D): 62.5%; cell count (A2058): 97.7%; cell count (A375): 92.2%

Question: What does the source list for `COc1ccc(C2=N[C@@H](c3ccc(Cl)cc3)[C@@H](c3ccc(Cl)cc3)N2C(=O)N2CCNC(=O)C2)c(OC(C)C)c1` [Nutlin-3] + CS(=O)(=O)c1ccc(C(=O)Nc2ccc(Cl)c(-c3ccccn3)c2)c(Cl)c1 [vismodegib] (first compound 0.5 µM, partner dose 5 µM)?
Answer: cell count (A101D): 82.2%; cell count (A2058): 116%; cell count (A375): 98.8%

Question: How did the cell count (A101D) turn out when `Cn1c(=O)n(-c2ccc(C(C)(C)C#N)cc2)c2c3cc(-c4cnc5ccccc5c4)ccc3ncc21` + OCCn1cc(-c2cnc3nnn(Cc4ccc5ncccc5c4)c3n2)cn1 [PF04217903] (first compound 0.02 µM, partner dose 5 µM) was run?
Answer: 74.2%

Question: And the cell count (A2058)?
Answer: 65.8%

Question: What about the cell count (A375) of the same compound?
Answer: 95.2%

Question: Which results are given for `COc1ccc(C2=N[C@@H](c3ccc(Cl)cc3)[C@@H](c3ccc(Cl)cc3)N2C(=O)N2CCNC(=O)C2)c(OC(C)C)c1` [Nutlin-3] + CN1CCN(c2ccc3nc(-c4c(N)c5c(F)cccc5[nH]c4=O)[nH]c3c2)CC1 [Dovitinib] (first compound 0.5 µM, partner dose 0.5 µM)?
Answer: cell count (A101D): 56.1%; cell count (A2058): 45.4%; cell count (A375): 74.9%

Question: With `COc1ccc(C2=N[C@@H](c3ccc(Cl)cc3)[C@@H](c3ccc(Cl)cc3)N2C(=O)N2CCNC(=O)C2)c(OC(C)C)c1` [Nutlin-3] + Cc1cc(N2CCOCC2)cc2[nH]c(-c3c(NC[C@@H](O)c4cccc(Cl)c4)cc[nH]c3=O)nc12 [BMS536924] (first compound 0.5 µM, partner dose 1 µM) as the compound, how does the cell count (A101D) read?
Answer: 84.6%

Question: And the cell count (A2058)?
Answer: 94.6%

Question: And the cell count (A375)?
Answer: 80.3%

Question: Which cell count (A101D) does the source give for `Cc1cn(-c2cc(NC(=O)c3ccc(C)c(Nc4nccc(-c5cccnc5)n4)c3)cc(C(F)(F)F)c2)cn1` [nilotinib] + OCCn1cc(-c2cnc3nnn(Cc4ccc5ncccc5c4)c3n2)cn1 [PF04217903] (first compound 1 µM, partner dose 5 µM) here?
Answer: 85.9%

Question: And the cell count (A2058)?
Answer: 92.4%

Question: What about the cell count (A375) of the same compound?
Answer: 117%

Question: With `Cc1cc(Nc2cc(N3CCN(C)CC3)nc(/C=C/c3ccccc3)n2)n[nH]1` + OCCn1cc(-c2cnc3nnn(Cc4ccc5ncccc5c4)c3n2)cn1 [PF04217903] (first compound 0.2 µM, partner dose 5 µM) as the compound, how does the cell count (A101D) read?
Answer: 83%

Question: What about the cell count (A2058) of the same compound?
Answer: 85.4%

Question: And the cell count (A375)?
Answer: 78.9%

Question: What does the source list for `Cc1cc(Nc2cc(N3CCN(C)CC3)nc(/C=C/c3ccccc3)n2)n[nH]1` + NCC(=O)Nc1ccc(-n2nc(C(F)(F)F)cc2-c2ccc3c(ccc4ccccc43)c2)cc1 [OSU03012] (first compound 0.2 µM, partner dose 5 µM)?
Answer: cell count (A101D): 54.4%; cell count (A2058): 105%; cell count (A375): 46.5%

Question: For `Cc1cn(-c2cc(NC(=O)c3ccc(C)c(Nc4nccc(-c5cccnc5)n4)c3)cc(C(F)(F)F)c2)cn1` [nilotinib] + NCC(=O)Nc1ccc(-n2nc(C(F)(F)F)cc2-c2ccc3c(ccc4ccccc43)c2)cc1 [OSU03012] (first compound 1 µM, partner dose 5 µM), which cell count (A101D) is on record?
Answer: 82.2%

Question: What about the cell count (A2058) of the same compound?
Answer: 70.5%

Question: What about the cell count (A375) of the same compound?
Answer: 48.1%

Question: Which results are given for `Cc1cn(-c2cc(NC(=O)c3ccc(C)c(Nc4nccc(-c5cccnc5)n4)c3)cc(C(F)(F)F)c2)cn1` [nilotinib] + CO[C@@H]1[C@H](N(C)C(=O)c2ccccc2)C[C@H]2O[C@]1(C)n1c3ccccc3c3c4c(c5c6ccccc6n2c5c31)C(=O)NC4 [Midostaurin] (first compound 1 µM, partner dose 0.4 µM)?
Answer: cell count (A101D): 74.9%; cell count (A2058): 72.8%; cell count (A375): 76.3%

Question: Which cell count (A101D) does the source give for `COc1ccc(C2=N[C@@H](c3ccc(Cl)cc3)[C@@H](c3ccc(Cl)cc3)N2C(=O)N2CCNC(=O)C2)c(OC(C)C)c1` [Nutlin-3] + Cc1cc(Nc2cc(N3CCN(C)CC3)nc(/C=C/c3ccccc3)n2)n[nH]1 [ENMD2076] (first compound 0.5 µM, partner dose 0.2 µM) here?
Answer: 71%

Question: What about the cell count (A2058) of the same compound?
Answer: 103%

Question: And the cell count (A375)?
Answer: 91.2%
